The experiment has as its system NCI-H322M lung. The experiment is described as follows: NCI tumour cell line growth inhibition, 48 h.

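Growth conditions: 96-well plates. Treatment: test compound, 48 hours, 5 concentrations. Analysis: linear interpolation between bracketing concentrations; unreached endpoints set to highest concentration. The concentration for 50% growth inhibition is given as GI50. TGI: total growth inhibition.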

On to `CN1CCN(Cc2ccc(NC(=O)c3cncc(C#Cc4cnn5cccnc45)c3)cc2C(F)(F)F)CC1`, for which the GI50 is 3.29 µM and the TGI worked out at 10.4 µM.

Values taken from PubChem BioAssay (NCI).
